About 2,500 (3.4%) of roughly 73,000 compounds were called active. This list was built around the results that the source calls inconclusive (neither active nor inactive); the mix of calls is not that of the screen. The call rests on the fitted dose curve; in most records, active means well fitted inhibition curve with a large enough effect; inconclusive means small, poorly fitted or top-dose-only effect; inactive means no such curve, though single readings can be large or run the other way. A potency beside an inconclusive call is a rough fit, not a confirmed value.
The compounds below were run against 3-hydroxyacyl-CoA dehydrogenase type-2 (Homo sapiens) (UniProt Q99714) (assay: qHTS Assay for Inhibitors of HADH2 (Hydroxyacyl-Coenzyme A Dehydrogenase, Type II)). Conditions: recombinant HADH2, NADH fluorescence, beta-hydroxybutyryl-CoA; activity change, negative = inhibition: at 57.1 µM (top of the series).
UniProt Q99714, sequence (Q99714 whole entry, looked up): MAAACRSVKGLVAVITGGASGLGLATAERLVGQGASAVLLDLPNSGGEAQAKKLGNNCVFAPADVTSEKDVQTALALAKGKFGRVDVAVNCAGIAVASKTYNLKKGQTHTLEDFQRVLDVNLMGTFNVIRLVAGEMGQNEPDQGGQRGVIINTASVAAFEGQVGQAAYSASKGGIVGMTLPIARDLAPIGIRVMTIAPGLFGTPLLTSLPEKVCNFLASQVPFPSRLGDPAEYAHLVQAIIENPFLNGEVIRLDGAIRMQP
UniProt Q99714, sequence (Q99714 whole entry, looked up): as above
In short: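 E. coli-expressed His-tagged HADH2 tested at 20 nM in alkaline Tris buffer (pH 9.0); oxidation of 90 uM beta-hydroxybutyryl-CoA with 1 mM NAD+ tracked fluorimetrically for 4 min.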
For COc1cc(-c2nnc3sc(Cc4ccccc4)nn23)cc(OC)c1OC, the Potency was inconclusive: 3.16 µM [inhibitor, full curve].
With CCNc1ncc2nc(-c3cccc(C#N)c3)c(=O)n(CCC#N)c2n1 the Potency was active: 15.8 µM.
With c1ccc(-c2oc3ncnc(NCCCN4CCOCC4)c3c2-c2ccccc2)cc1 the Potency was active: 10 µM.
With C=C/C(C)=C/[C@]1(C)SC(=O)C(C)=C1O the Potency was inconclusive: 20 µM [inhibitor, partial curve].
Nc1nc(-c2ccco2)nn1C(=O)c1cccnc1 was tested, and the Potency was inconclusive: 20 µM [inhibitor, partial curve].
In the case of COC(=O)Nc1nnc(-c2ccncc2)s1, the Potency is reported as active: 15.8 µM.
Cc1ccc(C(=O)Nc2ccccc2C(=O)NC(CC(=O)O)C(=O)O)cc1 (stereo not drawn) was tested, and the “activity change, negative = inhibition” value was inactive: -6.33%.
COCCCNC(=O)c1cc2c(-c3ccc(Cl)cc3)nn(C)c2s1 was tested, and the Potency was inconclusive: 31.6 µM [inhibitor, single point].
In the case of O=C(Nc1ccc2nn(-c3ccccc3)nc2c1)c1cccs1, the Potency is reported as inconclusive: 39.8 µM [inhibitor, single point].
Nc1[nH]c(=S)[nH]c(=O)c1N=Nc1c(Br)cc(S(N)(=O)=O)cc1Br was tested, and the Potency was inconclusive: 7.94 µM [inhibitor, single point].
For c1ccc(-c2cnc(CSc3ncnc4sccc34)o2)cc1, the Potency was inconclusive: 39.8 µM [inhibitor, single point].
In the case of Cn1cnc2c(sc3nc(N4CCOCC4)c4c(c32)CC(C)(C)OC4)c1=O, the “activity change, negative = inhibition” value is reported as inactive: 22.6%.
Nc1ccc(-c2nc3c(Cl)c(N)ccc3[nH]2)cc1 was tested, and the Potency was active: 25.1 µM.
Cn1c(SCC(=O)N2CCCc3ccccc32)nnc1-c1cccs1 was tested, and the “activity change, negative = inhibition” value was inactive: -7.8%.
For CC(C)(C)OC(=O)N1CCC(c2c(C(=O)O)cnn2-c2ccc(Cl)cc2)CC1, the Potency was inconclusive: 20 µM [inhibitor, single point].
With O=S(=O)(c1ccc2nc(-c3ccco3)c(-c3ccco3)nc2c1)N1CCOCC1 the Potency was inconclusive: 12.6 µM [inhibitor, partial curve].
For C[C@@](N)(C(=O)O)c1cccc(CC(=O)O)c1, the “activity change, negative = inhibition” value was inactive: 0.876%.
With OCc1cc(C(O)CNCCCCCCOCCCCc2ccccc2)ccc1O (stereo not drawn) the Potency was inconclusive: 39.8 µM [inhibitor, single point].
With CCOC(=O)c1sc(NCC2CCCO2)nc1C (stereo not drawn) the Potency was inconclusive: 39.8 µM [inhibitor, single point].
With CC(=O)Oc1cccc(N2C(=O)C3C4C=CC(C4=C(C)C)C3C2=O)c1 (stereo not drawn) the Potency was inconclusive: 3.16 µM [inhibitor, full curve].
For COCC(=O)N1CCC2(CC1)CN(C(=O)Nc1cccc(F)c1)C2, the Potency was inconclusive: 3.98 µM [inhibitor, single point].
For CCN(CC)COC(=S)S, the Potency was active: 1.26 µM.
For Cc1c(C)c2ccc(OCC(=O)N(C)C)c(C)c2oc1=O, the Potency was active: 25.1 µM.
In the case of CCc1c(C)[nH]c2ccc(C)cc2c1=O, the Potency is reported as inconclusive: 31.6 µM [inhibitor, single point].
CC1CCCc2sc3nc(NCc4ccco4)n4ncnc4c3c21 (stereo not drawn) was tested, and the Potency was inconclusive: 31.6 µM [inhibitor, single point].
For CN(C)c1ccc(N=Cc2ccco2)cc1, the Potency was inconclusive: 10 µM [inhibitor, partial curve].
For COc1ccc(-c2nc(C#N)c(N3CC(C)OC(C)C3)o2)cc1OC (stereo not drawn), the Potency was inconclusive: 31.6 µM [inhibitor, single point].
CCc1c(C)[nH]n(-c2ccc(Oc3ccccc3)c(S(=O)(=O)O)c2)c1=O was tested, and the Potency was inconclusive: 3.98 µM [inhibitor, full curve].
CC(C)[C@H](NC(=O)NCCc1ccc(Cl)cc1)C(=O)O was tested, and the Potency was inconclusive: 6.31 µM [inhibitor, single point].
For O=C(O)[C@@H](O)c1ccc(F)cc1, the activity change, negative = inhibition was inactive: -2.87% [at 11.4 µM].
In the case of CC(=O)[C@H]1[C@H]2[C@H](C(=O)[C@@H]3OC[C@H]2O3)[C@@H]2c3ccccc3C=CN12, the Potency is reported as inconclusive: 31.6 µM [inhibitor, partial curve, poor fit].
With COC(=O)c1ccc(C(NC(=O)OCc2ccccc2)/C(C)=C/[C@@H](C)C(=O)NCCc2c[nH]c3ccc(OC)cc23)cc1 (stereo partly drawn) the “activity change, negative = inhibition” value was inactive: -7.13%.
For COc1cc(C(=O)O[C@@H]2CC(C)=CC[C@@]3(C)CC[C@](O)(C(C)C)[C@H]23)ccc1O, the Potency was inconclusive: 39.8 µM [inhibitor, single point].
With Cc1ccc(NC(=O)c2ocnc2C)cc1Cl the Potency was inconclusive: 39.8 µM [inhibitor, single point].
For c1ccc(Nc2ncncc2-c2ccoc2)cc1, the Potency was inconclusive: 39.8 µM [inhibitor, single point].
In the case of CCN(CC)CC[n+]1ccc2c(C)c3[nH]c4ccc(O)cc4c3c(C)c2c1, the activity change, negative = inhibition is reported as inactive: 3.62% [at 11.4 µM].
CCCCCCC1C(C#N)=C(N)OC2=C1C(=O)CCC2 (stereo not drawn) was tested, and the Potency was inconclusive: 39.8 µM [inhibitor, single point].
For CCOCc1cc(C)[nH]c(=O)c1C#N, the Potency was active: 15.8 µM.
CCCN1C2=C(C(=O)CCC2)C(c2ccc(O)c(Br)c2)C2=C1CCCC2=O was tested, and the Potency was active: 15.8 µM.
In the case of CCc1cc2c(=O)c(-c3nc4ccccc4n3C)c(C)oc2c(CN2CCN(C)CC2)c1O, the “activity change, negative = inhibition” value is reported as inactive: -26.2%.
In the case of O=C1CCCc2c1[nH]c1ccc(CN3CCCCC3)cc21, the Potency is reported as inconclusive: 39.8 µM [inhibitor, single point].
With COC(=O)c1nc(NC(=O)c2ccc(Cl)cc2)n[nH]1 the Potency was inconclusive: 39.8 µM [inhibitor, single point].
With C[C@@H](NC(=O)c1coc(=O)c(Br)c1)c1ccccc1 the Potency was inconclusive: 31.6 µM [inhibitor, single point].
With CCCCCCCCCCC/C=C\C(C)(C)/C=C\CCCC(=O)O the Potency was inconclusive: 39.8 µM [inhibitor, single point].
For OC1CCCN(c2c3c(nc4cc(-c5cccc(Cl)c5)nn24)CCC3)C1 (stereo not drawn), the Potency was inconclusive: 31.6 µM [inhibitor, single point].
In the case of CN(C=O)CP(=O)(O)CCN1CCCC1=O, the “activity change, negative = inhibition” value is reported as inactive: 1.23%.
In the case of NC(=O)c1c(NC(=O)CN2C(=O)CCC2=O)sc2c1CCCCC2, the Potency is reported as inconclusive: 25.1 µM [inhibitor, single point].
For CC(=O)N[C@H](CS)C(=O)O, the Potency was inconclusive: 5.01 µM [inhibitor, full curve].
With Cc1ccc(S(=O)(=O)Nc2nc3ccccc3nc2NCc2ccco2)cc1C the Potency was inconclusive: 25.1 µM [inhibitor, single point].
CC(CCc1nc2ccccc2s1)(c1ccc(O)cc1)c1ccc(O)cc1 was tested, and the Potency was inconclusive: 2 µM [inhibitor, partial curve].
For CC(=O)N(c1ccc(C(C)C)cc1)C1C=CS(=O)(=O)C1 (stereo not drawn), the Potency was inconclusive: 0.794 µM [inhibitor, full curve].
With Cc1ccc(CNC(=O)CSc2ncccn2)cc1 the “activity change, negative = inhibition” value was inactive: 0.876%.
With Oc1c([C@H](Nc2ccccn2)c2ccccc2)ccc2cccnc12 the Potency was inconclusive: 0.316 µM [inhibitor, full curve].
In the case of COCCn1c(=O)[nH]c2cc(C(=O)NCCN3CCN(c4cccc(Cl)c4)CC3)ccc2c1=O, the Potency is reported as inconclusive: 39.8 µM [inhibitor, single point].
With O=C1CCCC2=C1C(c1ccc(Br)cc1)c1c([nH]c(=S)[nH]c1=O)N2 (stereo not drawn) the Potency was active: 10 µM.
In the case of CCOC(=O)Nc1cc2c(C)cc(=O)oc2cc1C, the Potency is reported as active: 25.1 µM.
With c1ccc2c(-c3ccncc3)c[nH]c2c1 the Potency was inconclusive: 39.8 µM [inhibitor, single point].
For O=[N+]([O-])c1cccc(Cl)c1Cl, the “activity change, negative = inhibition” value was inactive: -1.95%.
For CCOC(=O)c1c(NC(=O)c2noc3c2CCCC3)sc(C)c1C, the Potency was active: 3.16 µM.
For COc1cc(C=O)c([N+](=O)[O-])cc1OC, the Potency was inconclusive: 15.8 µM [inhibitor, partial curve].
In the case of COc1ccccc1NC(=O)c1nnn(CC(=O)Nc2ccccc2)c1N, the Potency is reported as inconclusive: 25.1 µM [inhibitor, single point].
Nc1c(C(=O)c2ccc(Br)s2)oc2ccccc12 was tested, and the “activity change, negative = inhibition” value was inactive: 1.81%.
For Cc1nn(-c2ccccn2)c2c1-c1nc(N)ncc1CC2, the Potency was active: 25.1 µM.
Oc1ccc(N2CCN(C(c3ccncc3)c3nnnn3C3CCCC3)CC2)cc1 (stereo not drawn) was tested, and the Potency was inconclusive: 31.6 µM [inhibitor, single point].
For O=C(Nc1ccc(N2CCN(C(=O)c3ccco3)CC2)c(Cl)c1)c1cc2ccccc2o1, the Potency was inconclusive: 31.6 µM [inhibitor, single point].
With COC(=O)C1=C(C)N(Cc2ccco2)C(=O)C1 the Potency was inconclusive: 15.8 µM [inhibitor, partial curve].
With COC(=O)c1ccc2[nH]c(C)c(CN3CCCC3)c(=O)c2c1 the Potency was inconclusive: 39.8 µM [inhibitor, single point].
With c1cc(CSSCc2ccncc2)ccn1 the Potency was inconclusive: 1 µM [inhibitor, full curve].
For O=C(C(Cc1ccccc1)N1C(=O)C2C3C=CC(C3)C2C1=O)N1CCCCCC1 (stereo not drawn), the “activity change, negative = inhibition” value was inactive: 1.74%.
In the case of O=c1c2cc(N3CCOCC3)ccc2[nH]c(=S)n1CCN1CCCC1, the Potency is reported as inconclusive: 31.6 µM [inhibitor, single point].
For Cc1ccnc(-n2sc3ccccc3c2=O)n1, the Potency was inconclusive: 0.398 µM [inhibitor, full curve].
For c1ccc2c(c1)OCC(c1nnc3sc(-c4ccc5c(c4)OCO5)nn13)O2 (stereo not drawn), the Potency was inconclusive: 1.58 µM [inhibitor, full curve].
In the case of Cc1cccc2c1Oc1ccccc1[C@@H]2NC(=O)c1ccc([N+](=O)[O-])cc1, the activity change, negative = inhibition is reported as inactive: -10.6% [at 11.4 µM].

Source: PubChem BioAssay AID886 (National Center for Advancing Translational Sciences (NCATS), 2007)
Further: nearly all actives have a fitted effect of over 60% in size.
On the % scale 0 is the no-effect control and ±100 the full control effect; potency means the concentration at half of the fitted maximal effect; tags describe the fitted curve by direction and shape.
